According to PubChem BioAssay AID686970 (National Center for Advancing Translational Sciences (NCATS), 2013):
Screen size: about 360,000 compounds; about 6,000 (1.7%) were called active. Inconclusive means that the source gave no clear call. Such entries were picked first, then a sample of the others. Calls come from the whole dose curve; as a rule, active = well fitted cell-killing curve with a large enough effect; inconclusive = small, poorly fitted or top-dose-only effect, or effect the other way; inactive = flat fitted curve, though single readings scatter. No potency is given beside an inconclusive call; the fits are too rough.

Assay: qHTS for induction of synthetic lethality in tumor cells producing 2HG: qHTS for the HT-1080-NT fibrosarcoma cell line;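 note: NT is the 2HG producing partner of a matched IDH1 knockdown line; nearly all actives have a fitted effect of over 55% in size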;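 for activity, negative = less viability: 0% = DMSO-treated cells and -100% = media-only wells without cells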
Conditions: HT-1080-NT fibrosarcoma viability, CellTiter-Glo ATP luminescence, 48 h; activity, negative = less viability: at 46.1 µM (top of the series) unless noted
Summary of the method: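 Luminescent CellTiter-Glo readout after 48 hours of compound exposure at 37 degrees C defined viability of HT-1080-NT cells. Activity was normalized to DMSO wells and cell-free media wells; concentration-response curves were fitted and assigned curve classes.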
Potency is the fitted concentration of half-maximal effect; tags give direction and shape of the fitted curve.

Row | Compound | Potency | activity, negative = less viability
1 | NC(=O)c1cc(Cc2ccccc2)sc1NC(=O)c1ccco1 | inconclusive [cytotoxic, full curve] | 
2 | O=C1C2C(C(=O)N1/N=C/c1ccc([N+](=O)[O-])o1)C1C=CC2C12CC2 (stereo not drawn) | inconclusive [cytotoxic, single point] | 
3 | Cc1ccc(NC2=C(NCCO)C(=O)c3ccccc3C2=O)cc1 | inconclusive [cytotoxic, single point] | 
4 | O=C(/C=C/c1ccc(Cl)c(Cl)c1)N1CCc2ccccc21 | inconclusive [rising, partial curve, poor fit] | 
5 | CN1CCN(C(=O)c2ccc(COc3ccc(Cl)cc3Cl)cc2)CC1 | inconclusive [cytotoxic, single point] | 
6 | CC(C)Oc1ccc(/C=N/NC(N)=S)cc1 | inconclusive [cytotoxic, single point] | 
7 | CCNC(=O)c1c(O)c2cccc3c2n(c1=O)CC3 | inconclusive [cytotoxic, single point] | 
8 | Cc1ccc(S(=O)(=O)N2C3CCCCC3O[C@H]2CC(=O)c2ccccc2)cc1 (stereo partly drawn) | inconclusive [cytotoxic, single point] | 
9 | O=C(COc1ccccc1F)Nc1ccc(S(=O)(=O)N2CCCC2)cc1 |  | inactive: 10%
10 | COc1cccc(-c2cc(=O)c3cc(NC(=O)c4ccccc4)ccc3[nH]2)c1 | active: 3.66 µM | 
11 | CCc1nc(C)ccc1OC(=O)C12CC3CC(CC(C3)C1)C2 |  | inactive: -4.36%
12 | COc1ccccc1NC(=O)/C=C/c1ccc2c(c1)OCO2 | inconclusive [cytotoxic, single point] | 
13 | O=C1c2ccccc2C(=O)N1CCC(c1ccc(F)cc1)c1ccco1 (stereo not drawn) | inconclusive [rising, full curve] | 
14 | CCOC(=O)C1CCN(Cc2ccc(F)c(Br)c2)CC1 |  | inactive: -0.938%
15 | CCOc1ccc(C(NC(=O)CC)c2c(O)ccc3ccccc23)cc1 (stereo not drawn) | inconclusive [cytotoxic, single point] | 
16 | O=C(CC1C(=O)NCCN1Cc1cccc(Oc2ccccc2)c1)NCCc1cnccn1 (stereo not drawn) |  | inactive: -5.96%
17 | Nc1nc(CCl)nc(N(c2ccccc2)c2ccccc2)n1 | inconclusive [cytotoxic, partial curve, poor fit] | 
18 | COc1ccc(Sc2cnn(-c3ccccc3)c(=O)c2Cl)cc1 |  | inactive: -4.24%
19 | OC(c1ccc(F)cc1)c1nc(-c2cccc(F)c2)cs1 (stereo not drawn) |  | inactive: -16%
20 | O=C(Cc1ccc(Cl)cc1)Nc1ccc(N2CCN(C(=O)c3ccco3)CC2)cc1 | inconclusive [cytotoxic, single point] | 
21 | C/C(=N\NC(=O)COc1ccc(C(C)(C)C)cc1)c1ccc(-n2ccnc2)cc1 | inconclusive [cytotoxic, single point] | 
22 | N#C/C(=N\Nc1ccccc1)C(N)=S |  | inactive: -1.53%
23 | CCS(=O)(=O)c1ncc(Cl)c(C(=O)Nc2ccc(S(=O)(=O)N(C)c3ccccc3)cc2)n1 | active: 2.59 µM | 
24 | Cc1ccc(/C=C/c2onc(C)c2S(=O)(=O)N2CCC(C(=O)N3CCN(C)CC3)CC2)cc1 | inconclusive [cytotoxic, single point] | 
25 | CC(C)NCCCOc1ccc(Cl)cc1Br | inconclusive [cytotoxic, partial curve] | 

Row | Compound | Potency | activity, negative = less viability
26 | NC(Cc1ccc(C(F)(F)F)cc1)c1csc(Nc2cnccn2)n1 (stereo not drawn) | inconclusive [cytotoxic, single point] | 
27 | O=C(CSCC(=O)NN=Cc1ccccc1O)NN=Cc1ccccc1O | inconclusive [cytotoxic, single point] | 
28 | Cc1ccc(NC(=O)Cc2csc(-c3ccccc3)n2)cc1F |  | inactive: -24.1%
29 | CCOC(=O)c1ccc(NS(=O)(=O)c2ccc(-c3coc(C)n3)cc2)cc1 |  | inactive: -9.91%
30 | Cc1ccc(-c2nnn(CC(=O)N(CC(=O)NC3CCCCC3)c3ccc(F)c(Cl)c3)n2)o1 | inconclusive [cytotoxic, single point] | 
31 | Cc1cc(=O)[nH]c(SCC(=O)NCC2CCCCC2)c1C#N |  | inactive: -1.74%
32 | CC(C)=CCC/C(C)=C/CNC(=O)C[C@H]1C[C@H](C(=O)N(C(C)C)C(C)C)[C@@]2(C)c3[nH]c4cc(CCC(=O)N(C)C)ccc4c3CCN2C1=O | inconclusive [cytotoxic, single point] | 
33 | COc1cccc2c1O/C(=N\O)C(C(=O)Nc1ccc(C)cc1)C2 (stereo not drawn) | inconclusive [cytotoxic, single point] | 
34 | CCOC(=O)c1cnc2c(Cl)c(Cl)ccc2c1N1CCN(C)CC1 | active: 14.6 µM | 
35 | CCNC(=O)COC(=O)c1sccc1C | inconclusive [rising, single point] | 
36 | C[C@@H](CN1CCC(Cc2ccccc2)CC1)[C@@H](O)c1ccc(O)cc1 |  | inactive: -1.28%
37 | CCOC(=O)c1ccccc1NC(=O)COC(=O)CCC(=O)c1ccccc1 |  | inactive: 5.92%
38 | COc1ccc(CN2CCN(CC(O)Cn3c4ccccc4c4ccccc43)CC2)cc1 (stereo not drawn) | active: 18.4 µM | 
39 | COCCN1C(=O)COc2ccccc2C1C(=O)NC(C)(C)C (stereo not drawn) |  | inactive: 16.2%
40 | Cc1cc(C)c2cccc(NC(=S)NC(=O)c3ccccc3)c2n1 | active: 2.51 µM | 
41 | CCN1CCN(c2cc(C)c3cc(NC(=O)c4cccs4)ccc3n2)CC1 | inconclusive [cytotoxic, single point] | 
42 | Cc1cccc(NS(=O)(=O)c2c(C)noc2C)c1 |  | inactive: 10.9%
43 | COc1ccc(C2NC(=S)NC3=C2CCCC3=C2SCCS2)cc1 (stereo not drawn) | active: 9.2 µM | 
44 | CC(C)=CCC/C(C)=C/CNC(=O)C[C@H]1C[C@H](C(=O)N2CCCCC2)[C@@]2(C)c3[nH]c4cc(-c5ccco5)ccc4c3CCN2C1=O | inconclusive [cytotoxic, partial curve] | 
45 | O=C1Nc2ccc3c(c2C1=Cc1cc2c(cc1Br)OCO2)OCO3 | inconclusive [cytotoxic, full curve] | 
46 | O=C(Cc1coc2ccc3ccccc3c12)NCc1ccccc1 | inconclusive [cytotoxic, single point] | 
47 | CCCc1cc(=O)[nH]c(SCC(=O)NC(=O)OCC)n1 |  | inactive: 1.41%
48 | CCc1ccc(C(O)c2ncc(-c3cccc4ccccc34)[nH]2)cc1 (stereo not drawn) | inconclusive [cytotoxic, partial curve] | 
49 | Cc1cccc(Oc2nc(-c3ccccc3)cc(C)c2S(C)(=O)=O)c1C | inconclusive [cytotoxic, single point] | 
50 | CCOc1ccc2nc(SCC(=O)NCC3CCCO3)c(C#N)cc2c1 (stereo not drawn) |  | inactive: -22.6%

Row | Compound | Potency | activity, negative = less viability
51 | Cc1ccc(Cl)cc1NC(=S)NN | inconclusive [cytotoxic, single point] | 
52 | COCCCNc1c2c3c(cccc3[nH]c1=O)C(=O)c1ccccc1-2 | inconclusive [cytotoxic, single point] | 
53 | Cc1cc(Cl)ccc1OCC(=O)NC1CCCC1 | inconclusive [cytotoxic, single point] | 
54 | Cc1ccc(NC(=O)/C=C/c2ccco2)nc1 | active: 0.0461 µM | 
55 | CC1(c2ccc3ccccc3c2)NC(=O)N(CC(=O)N2CCN(c3ccccc3O)CC2)C1=O (stereo not drawn) |  | inactive: -6.05%
56 | CCS(=O)(=O)c1ccc(C(=O)Nc2ccccc2OC)c(Cl)c1Cl |  | inconclusive: 16.8%
57 | CS/C(=N\S(=O)(=O)c1ccc(N)cc1)NS(=O)(=O)c1cccs1 | inconclusive [rising, partial curve] | 
58 | O=c1cc(-c2ccccc2)[nH]n1-c1nc2ccccc2[nH]1 | active: 11.2 µM | 
59 | CC(=O)SCC(=O)N=c1sc2cc(F)ccc2n1C |  | inactive: 13.5%
60 | CN(C)S(=O)(=O)c1cccc(NC(=O)COC(=O)c2cc3ccccc3oc2=O)c1 |  | inactive: 2.25%
61 | COc1ccccc1-n1nnnc1S(=O)(=O)Cc1ccc(Cl)cc1 | active: 20.6 µM | 
62 | C#CCOCCOCCOCCNc1nc(N2CCN(C(=O)CCCCCCCCCCNC(=O)Cn3cc(CCCCCN)nn3)CC2)nc(N2CCN(C(=O)CCCCCCCCCCNC(=O)[C@H]([C@@H](C)CC)n3cc(CCCCCN)nn3)CC2)n1 | inconclusive [cytotoxic, single point] | 
63 | C[C@@H]1CN([C@H](C)CO)C(=O)c2c(c3ccccc3n2C)-c2ccccc2CO[C@H]1CN(C)Cc1ccc(Oc2ccccc2)cc1 | inconclusive [cytotoxic, single point] | 
64 | CCN1CCN(S(=O)(=O)c2ccc(Cl)c(C(=O)Oc3ccc(CC(=O)OC)cc3)c2)CC1 |  | inactive: 3.79%
65 | Cn1c(=O)c2c(nc(NCc3cccnc3)n2Cc2cccc(C(F)(F)F)c2)n(C)c1=O | active: 20.6 µM | 
66 | CCOc1cc(/C=C(\C#N)C(=O)Nc2cccc(C(=O)O)c2)cc(Br)c1OC(=O)c1ccc(OC)cc1 | inconclusive [cytotoxic, single point] | 
67 | COc1ccc(CC2(CO)CCN(CC3=Cc4cc(Cl)ccc4OC3)CC2)cc1 | active: 14.6 µM | 
68 | CC(C)(C)N1CC(C(=O)Nc2ccc(C(N)=O)cc2)CC1=O (stereo not drawn) |  | inactive: 9.81%
69 | COc1cccc(NC(=O)COC(=O)CNS(=O)(=O)c2c(F)cccc2F)c1 |  | inactive: 6.02%
70 | Cc1ccc(OCC(=O)Nc2ccccc2-c2ccccc2)cc1 | inconclusive [cytotoxic, single point] | 
71 | Nc1c(C(=O)CSc2nnnn2-c2ccc(O)cc2)c(=O)[nH]c(=O)n1C1CC1 | inconclusive [cytotoxic, partial curve, poor fit] | 
72 | COc1cc(C2C(C(C)=O)=C(O)C(=O)N2c2ccc(C)cc2)ccc1O (stereo not drawn) |  | inconclusive: 40.4%
73 | Cc1ccc(S(=O)(=O)NNC(=O)C(=O)NNc2ccccn2)cc1 |  | inactive: -11%
